Data published in the supplement of paper PMC4967469.
The IC50 comes from the fitted curve, where viability falls to half of the control; where the fit passes the top or lowest dose, that dose stands as a limit. AUC sums up the same curve from the lowest dose to the 256-fold higher top dose: 1 means no effect, lower means more sensitive. For part of these data: The top dose, if marked as inferred, is not printed in the source and was worked back from the curve model. For part of these data: Where an entry number is given, a second screen of the drug exists; the two often differ.

Legend:
Assay in all cases: Viability of human cancer cell lines after 72 h of drug (GDSC screen)
[1] = compound: Nc1ccn([C@@H]2O[C@H](CO)[C@@H](O)C2(F)F)c(=O)n1 [Gemcitabine]; settings: top dose 1.024 µM
Experimental: (§1)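 Human cancer cell lines in 384-well plates, medium with 10% serum, drug for 72 h over a 256-fold dose range (nine 2-fold or five 4-fold steps up to the top dose). Adherent lines were fixed and stained with the nucleic acid dye Syto60, suspension lines read with resazurin; signal relative to control wells, capped at 0 and 100%. One two-parameter sigmoid per drug and line, fitted in a mixed model over all curves with the slope shared within a line.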

[2] = compound: CC(C)c1ccccc1Cc1cc(C(=O)Nc2ccc(S(=O)(=O)c3ccccc3C(C)(C)C)cc2)c(O)c(O)c1O [TW-37]; settings: top dose 5 µM
Experimental: as §1

[3] = compound: Cc1ccc(Nc2cc(-c3cccc(N4C(=O)c5ccccc5C4=O)c3)ncn2)cc1NS(C)(=O)=O [KIN001-270]; settings: top dose 20 µM; top dose inferred
Experimental: as §1

[4] = compound: CCNC(=O)c1noc(-c2cc(C(C)C)c(O)cc2O)c1-c1ccc(CN2CCOCC2)cc1 [AUY922]; settings: top dose 0.256 µM; top dose inferred
Experimental: as §1

[5] = compound: S=C(NCc1ccc2c(c1)OCO2)N1CCN(c2ncnc3c2oc2ccccc23)CC1 [MP470]; settings: top dose 20 µM; top dose inferred
Experimental: as §1

[6] = compound: C/C(O)=C(\C#N)C(=O)Nc1cc(Br)ccc1Br [LFM-A13]; settings: top dose 16 µM; top dose inferred
Experimental: as §1

[7] = compound: CC(O)(CS(=O)(=O)c1ccc(F)cc1)C(=O)Nc1ccc(C#N)c(C(F)(F)F)c1 [Bicalutamide]; settings: top dose inferred
Experimental: as §1

[8] = compound: O=S(=O)(c1ccccc1)N(CC(F)(F)F)c1ccc(C(O)(C(F)(F)F)C(F)(F)F)cc1 [T0901317]; settings: top dose 10.24 µM; top dose inferred
Experimental: as §1

[9] = top dose 1.024 µM, screen: GDSC drug entry 150
[10] = top dose 10 µM, screen: GDSC drug entry 1502

Row | Cell Line | AUC [1] | IC50 [1] | AUC [2] | IC50 [2] | AUC [3] | IC50 [3] | AUC [4] | IC50 [4] | AUC [5] | IC50 [5] | AUC [6] | IC50 [6] | AUC [7, 9] | IC50 [7, 9] | AUC [7, 10] | IC50 [7, 10] | AUC [8] | IC50 [8]
1 | A673 (rhabdomyosarcoma, adherent) | 0.342 | 24.5 nM | 0.379 | 151 nM | 0.985 | > 20 µM | 0.615 | 31.9 nM | 0.962 | > 20 µM | 0.974 | > 16 µM | 0.988 | > 1.02 µM | 0.986 | > 10 µM | 0.97 | > 10.2 µM
2 | A427 (non-small cell lung carcinoma, adherent) | 0.77 | 395 nM | 0.389 | 155 nM | 0.98 | > 20 µM | 0.517 | 17.8 nM | 0.94 | > 20 µM | 0.971 | > 16 µM | 0.985 | > 1.02 µM | 0.985 | > 10 µM | 0.974 | > 10.2 µM
3 | RKN (ovary, adherent) | 0.837 | 744 nM | 0.511 | 335 nM | 0.974 | > 20 µM | 0.621 | 35.2 nM | 0.954 | > 20 µM | 0.976 | > 16 µM | 0.982 | > 1.02 µM | 0.983 | > 10 µM | 0.986 | > 10.2 µM
4 | HCC-44 (lung adenocarcinoma, adherent) | 0.259 | 13.3 nM | 0.597 | 574 nM | 0.959 | > 20 µM | 0.39 | 8.02 nM | 0.955 | > 20 µM | 0.945 | > 16 µM | 0.975 | > 1.02 µM | 0.983 | > 10 µM | 0.984 | > 10.2 µM
5 | EPLC-272H (lung squamous cell carcinoma, adherent) | 0.306 | 16.8 nM | 0.633 | 767 nM | 0.944 | > 20 µM | 0.633 | 39.1 nM | 0.833 | 15.3 µM | 0.967 | > 16 µM | 0.976 | > 1.02 µM | 0.975 | > 10 µM | 0.982 | > 10.2 µM
6 | NCI-H1703 (lung adenocarcinoma, adherent) | 0.34 | 20.7 nM | 0.438 | 204 nM | 0.981 | > 20 µM | 0.726 | 82.1 nM | 0.866 | > 20 µM | 0.975 | > 16 µM | 0.979 | > 1.02 µM | 0.947 | > 10 µM | 0.925 | > 10.2 µM
7 | NCI-H1793 (lung adenocarcinoma, adherent) | 0.686 | 265 nM | 0.723 | 1770 nM | 0.974 | > 20 µM | 0.925 | > 256 nM | 0.89 | > 20 µM | 0.961 | > 16 µM | 0.982 | > 1.02 µM | 0.951 | > 10 µM | 0.98 | > 10.2 µM
8 | RD (rhabdomyosarcoma, adherent) | 0.531 | 78.6 nM | 0.635 | 768 nM | 0.946 | > 20 µM | 0.483 | 14.4 nM | 0.922 | > 20 µM | 0.943 | > 16 µM | 0.985 | > 1.02 µM | 0.98 | > 10 µM | 0.985 | > 10.2 µM
9 | BCPAP (thyroid, adherent) | 0.125 | 4.85 nM | 0.469 | 259 nM | 0.968 | > 20 µM | 0.59 | 27.5 nM | 0.969 | > 20 µM | 0.943 | > 16 µM | 0.988 | > 1.02 µM | 0.974 | > 10 µM | 0.974 | > 10.2 µM
10 | JIMT-1 (breast, adherent) | 0.382 | 29.5 nM | 0.522 | 361 nM | 0.974 | > 20 µM | 0.479 | 14 nM | 0.912 | > 20 µM | 0.97 | > 16 µM | 0.985 | > 1.02 µM | 0.967 | > 10 µM | 0.977 | > 10.2 µM
11 | H2591 (mesothelioma, adherent) | 0.783 | 577 nM | 0.47 | 253 nM | 0.951 | > 20 µM | 0.697 | 68.6 nM | 0.982 | > 20 µM | 0.974 | > 16 µM | 0.982 | > 1.02 µM | 0.974 | > 10 µM | 0.982 | > 10.2 µM
12 | COR-L23 (large cell lung carcinoma, adherent) | 0.314 | 19.6 nM | 0.611 | 627 nM | 0.96 | > 20 µM | 0.471 | 13.3 nM | 0.937 | > 20 µM | 0.931 | > 16 µM | 0.987 | > 1.02 µM | 0.982 | > 10 µM | 0.963 | > 10.2 µM
13 | PCI-38 (head and neck, adherent) | 0.801 | 501 nM | 0.474 | 266 nM | 0.977 | > 20 µM | 0.613 | 32.8 nM | 0.955 | > 20 µM | 0.932 | > 16 µM | 0.987 | > 1.02 µM | 0.97 | > 10 µM | 0.979 | > 10.2 µM
14 | NCI-H520 (lung squamous cell carcinoma, adherent) | 0.329 | 21 nM | 0.602 | 602 nM | 0.888 | > 20 µM | 0.596 | 29.6 nM | 0.914 | > 20 µM | 0.977 | > 16 µM | 0.987 | > 1.02 µM | 0.985 | > 10 µM | 0.983 | > 10.2 µM
15 | Hs766T (pancreas, adherent) | 0.917 | > 1020 nM | 0.864 | > 5000 nM | 0.981 | > 20 µM | 0.983 | > 256 nM | 0.962 | > 20 µM | 0.953 | > 16 µM | 0.984 | > 1.02 µM | 0.982 | > 10 µM | 0.975 | > 10.2 µM
